The text below walks through data of patent US10945434B2, “Azole derivative, intermediate compound, method for producing azole derivative, agricultural or horticultural chemical agent, and protective agent for industrial material” (priority 2017, dated 2021).

Data set [1] has as its system Fusarium graminearum. It is filed as cell-based. Conditions: 25, 3 days.
Data set [2] has as its system Zymoseptoria tritici. Put plainly: Antimicrobial activity petri dish test, Zymoseptoria tritici. It is filed as cell-based. The conditions noted are these: 25, 14 days.
Data set [3] concerns Gaeumannomyces graminis. Put plainly: Antimicrobial activity petri dish test, Gaeumannomyces graminis. Type of data set: cell-based. Conditions: 0.08 mg/L, 20, 3 days.
Data set [4] concerns Pyricularia oryzae. It is filed as cell-based. Conditions: 25, 7 days.
The subject of data set [5] is Ustilago nuda. Kind of data set: Antimicrobial activity petri dish test, Ustilago nuda. Type of data set: cell-based. The conditions noted are these: 25, 7 days.
The test system of data set [6] is puccinia recondite-causing germs. The conditions noted are these: in vivo. The protocol: (§1) The wheat growth influence by the seed treatment and the control effect on puccinia recondite were evaluated. After a compound dissolved in DMSO was smeared into wheat seed (variety: agriculture No. 61) in a plastic tube so that the throughput was 200 g ai/100 kg seeds, 20 g ai/100 kg seeds, or 2 g ai/100 kg seeds, 8-grain wheat seeds were seeded in a 80 cm^2 pot. The lower feedwater was managed in the greenhouse, a plant height of the wheat was examined 16 days after the seeding, a growth degree (%) against the wheat was examined by the following Equation, and the growth degree was calculated by the following Equation. Growth degree (%)=(plant height in agent treated area/plant height in untreated area)×100
The spore fluid of the puccinia recondite-causing germs (adjusted to 200 spores/field of view, Gramin S of 60 ppm) was inoculated by the spraying and kept for 48 hours under high humidity conditions of 25° C. Thereafter, it was managed in a greenhouse. On 11 days after the inoculation, the morbidity of the puccinia recondite was examined, and the control value was calculated by the following Equation. The morbidity was examined on the same scale as that of Test Example 2. Control value (%)=(1−average morbidity of agent treated area/average morbidity of untreated area)×100

For data set [7], the system named is wheat (variety: agriculture No. 61). Here is the method: as §1
Data set [8] concerns Septoria tritici. Conditions: for Control value: UK field test, emulsion sprayed twice (BBCH 31-32 and 37-39, 200 L/ha), flag leaf and second leaf severity 50 days after second spraying. Here is the method:
The control effect test on the Septoria tritici was tested in the UK test field using the emulsion (prepared in accordance with Preparation Example 2) containing the compound (I-1) and the control compound A as the active ingredients. The amount of agent contained in each emulsion was adjusted to the amount shown in Table 15 and sprayed twice in with growth stages BBCH 31-32 and 37-39 (200 L/ha). The severity of flag leaf and second leaf was evaluated after 50 days lapsed after the second spraying. The control value was calculated from the average severity of the flag leaf and the second leaf. Control value (%)=(1−average severity of treated area/average severity of untreated area)×100

Data set [9] concerns Rhizoctonia solani. Kind of data set: Antimicrobial activity petri dish test, Rhizoctonia solani. It is filed as cell-based. Conditions: tested substance 5 mg/L; PDA medium; 25, 1 day.
For data set [10], the system named is Microdochium nivale. Put plainly: Antimicrobial activity petri dish test, Microdochium nivale. Conditions: tested substance 5 mg/L; PDA medium; 25, 3 days. Type of data set: cell-based.
For data set [11], the system named is Sclerotinia sclerotiorum. Put plainly: Antimicrobial activity petri dish test, Sclerotinia sclerotiorum. Type of data set: cell-based. Conditions: tested substance 5 mg/L; PDA medium.
Data set [12] concerns Gibberella fujikuroi. Put plainly: Antimicrobial activity petri dish test, Gibberella fujikuroi. Type of data set: cell-based. Conditions: tested substance 5 mg/L; PDA medium; 25, 3 days.
Where [13] appears, read: tested substance 5 mg/L, PDA medium.

Structures are written as SMILES. Read-outs that look alike come from different tables or passages of the source.

On to `CC(O)(Cn1cncn1)c1ccc(Oc2ccc(Cl)cc2)cc1C(F)(F)F` (stereo not drawn), for which the antimicrobial index was 4 (Less than 80% and 60% or more) in data set [1] (1.25 mg/L, mycelium elongation inhibition rate on PDA medium); 4 (key: 5: 80% or more; 4: Less than 80% and 60% or more; 3: Less than 60% and 40% or more; Less than 40% and 20% or more; 1: Less than 20%) in data set [2]; 3 (key: 5: 80% or more; 4: Less than 80% and 60% or more; 3: Less than 60% and 40% or more; Less than 40% and 20% or more; 1: Less than 20%) in data set [3]; 3 (Less than 60% and 40% or more) in data set [4] (0.63 mg/L, PDA medium); 3 (key: 5: 80% or more; 4: Less than 80% and 60% or more; 3: Less than 60% and 40% or more; Less than 40% and 20% or more; 1: Less than 20%) in [5] (1.25 mg/L).

As for `COC(=O)C(O)(Cn1cncn1)c1ccc(Oc2ccc(Cl)cc2)cc1Cl` (stereo not drawn) [Compound I-1, methyl 2-hydroxy-2-(2-chloro-4-(4-chlorophenoxy)phenyl)-3-(1H-1,2,4-triazol-1-yl)propanoate], the “effect of controlling disease by the seed treatment” value in data set [6] is “superior in effect of controlling disease than the control compound A”. For the same compound, in data set [7] (seed treatment, throughput 20 g ai/100 kg seeds, wheat plant height 16 days after the seeding), the “Growth degree (%)” value was found to be 100%. Further, in [7] (wheat seed treatment), the “growth influence on wheat / phytotoxicity” value was “phytotoxicity was weak”. Further, the results for the Control value in [8] (dosage 90) and in [8] (dosage 150) were 92% and 93%, respectively. For the same compound, the “control value for the Septoria tritici” value in data set [8] (emulsion, UK test field, sprayed twice, compared with emulsion of control compound A) was “higher control value”.

As to `COC(=O)C(O)(Cn1cncn1)c1ccc(Oc2ccccc2)cc1` (stereo not drawn) [control compound B, methyl 2-hydroxy-2-(4-phenoxyphenyl)-3-(1H-1,2,4-triazol-1-yl)propanoate], the antimicrobial index was 2 (Less than 40% and 20% or more) in [9]; 1 (Less than 20%) in data set [10]; 3 (key: 5: 80% or more; 4: Less than 80% and 60% or more; 3: Less than 60% and 40% or more; Less than 40% and 20% or more; 1: Less than 20%) in [1]; 2 (Less than 40% and 20% or more) in [11]; 1 (Less than 20%) in data set [2] (setting [13]); 2 (Less than 40% and 20% or more) in data set [12]. In addition, the antimicrobial index in data set [3] (PDA medium) is 1 (Less than 20%); in [4] it was 2 (key: 5: 80% or more; 4: Less than 80% and 60% or more; 3: Less than 60% and 40% or more; Less than 40% and 20% or more; 1: Less than 20%); in [5] (setting [13]) it was 1 (Less than 20%).

On to `CC(O)(Cn1cncn1)c1ccc(Oc2ccc(Cl)cc2)cc1C(F)(F)F` (stereo not drawn) [control compound A], for which the “Growth degree (%)” value in [7] (agriculture No. 61, wheat, in vivo) is 90%.
